Assay results from patent publication US20250051471A1, “Anti-Abcb1 Antibodies” (WILLIAM ROBERT ARATHOON LIVING TRUST DATED AUGUST 29, 2016, priority 2021, published 2025).

B1: KB1-1418: humanized ABCB1XCD47 bispecific antibody, HIR2/KbR1 Fc, MRK16v4b common light chain (antibody)
heavy 1: EVQLVESGGVVVQPGGSLRLSCAASGFTFSRYTMSWVRQAPGKGLEWVATISSGGGNTYYPDSVKGRFTVSRDNSKNSLYLQMNSLRTEDTALYYCARYGAGDAWFAYWGQGTLVTVSSASTKGPSVFPLAPSSKSTSGGTAALGCLVKDYFPEPVTVSWNSGALTSGVHTFPAVLQSSGLYSLSSVVTVPSSSLGTQTYICNVNHKPSNTKVDKRVEPKSCDKTHTCPPCPAPELLGGPSVFLFPPKPKDTLMISRTPEVTCVVVDVSHEDPEVKFNWYVDGVEVHNAKTKPREEQYNSTYRVVSVLTVLHQDWLNGKEYKCKVSNKALPAPIEKTISKAKGQPREPQVCTLPPSREEMTKNQVSLSCAVKGFYPSDIAVEWESNGQPENNYKTTPPVLDSDGSFVLVSKLTVDKSRWQQGNVFSCSVMHEALHNHYTQKSLSLSPG
heavy 2: QVQLVQSGAEVKKPGASVKVSCKASGYTFTNYNMHWVRQAPGQRLEWMGTIYPGNDDTSYNQKFKDRVTITADTSASTAYMELSSLRSEDTAVYYCARGGYRAMDYWGQGTLVTVSSASTKGPSVFPLAPSSKSTSGGTAALGCLVKDYFPEPVTVSWNSGALTSGVHTFPAVLQSSGLYSLSSVVTVPSSSLGTQTYICNVNHKPSNTKVDKRV[human IgG1 Fc with changes omitted]
light: DIVMTQTPLSSPVTLGQPASISCRSSQSIVHSTGNTYLEWYQQKPGQPPRLLIYKISNRFSGVPDRFSGSGSGTDFTLKISRVEAEDVGVYYCFQASHFPRTFGQGTKLEIK
modifications: left off: a dimerising Fc or GST
notes: humanized ABCB1XCD47 bispecific antibody, HIR2/KbR1 Fc, MRK16v4b common light chain
B2: KB1-1419: humanized ABCB1XCD47 bispecific antibody, HIR2/KbR1 Fc, B1VL6/CDR3v2a common light chain (antibody)
heavy 1: B1 heavy 1
heavy 2: QVQLVQSGAEVKKPGASVKVSCKASGYTFTNYNMHWVRQAPGQRLEWMGTIYPGNDDTSYNQKFKDRVTITADTSASTAYMELSSLRSEDTAVYYCARGGYRAMDYWGQGTLVTVSSASTKGPSVFPLAPSSKSTSGGTAALGCLVKDYFPEPVTVSWNSGALTSGVHTFPAVLQSSGLYSLSSVVTVPSSSLGTQTYICNVNHKPSNTKVDKRV[human IgG1 Fc with changes omitted]
light: DIVMTQSPLSLPVTPGEPASISCRSSQSLVHSNGNTYLEWYLQKPGQSPQLLIYKVSNRFSGVPDRFSGSGSGTDFTLKISRVEAEDVGVYYCFQGSHFPRTFGQGTKLEIKRTVAAPSVFIFPPSDEQLKSGTASVVCLLNNFYPREAKVQWKVDNALQSGNSQESVTEQDSKDSTYSLSSTLTLSKADYEKHKVYACEVTHQGLSSPVTKSFNRGEC
B3: Fc/KT14/B1.89v1 huL1(KV2) hmz LC: humanized anti-CD47 mono arm antibody with B1.89v1 huL1(KV2) light chain (antibody)
heavy: QVQLVQSGAEVKKPGASVKVSCKASGYTFTNYNMHWVRQAPGQRLEWMGTIYPGNDDTSYNQKFKDRVTITADTSASTAYMELSSLRSEDTAVYYCARGGYRAMDYWGQGTLVTVSSASTKGPSVFPLAPSSKSTSGGTAALGCLVKDYFPEPVTVSWNSGALTSGVHTFPAVLQSSGLYSLSSVVTVPSSSLGTQTYICNVNHKPSNTKVDKRV[human IgG1 Fc with changes omitted]
light: B2 light with S28T, L29I, N58K, G96A
modifications: left off: another chain or arm of the molecule
notes: humanized anti-CD47 mono arm antibody with B1.89v1 huL1(KV2) light chain

How the values were obtained:
DX5 cells = test: FACS binding to DX5 WT, CD47 KO and ABCB1 KO cells; assay type: cell-based, human; conditions: for binding to ABCB1 and CD47 antigens expressed on cancer cell surface: DX5 WT, CD47 KO and ABCB1 KO cells
Description: The mono arm antibodies each have only one binding valency for the target. The wild-type DX5 (DX5 WT) cells express both ABCB1 and CD47 antigens.
The mono arm antibodies only have one binding valency for the target.
The mono arm antibodies each have only one binding valency for the target.
FIGS. 19A-19C show the binding of bispecific humanized ABCB1XCD47 antibodies KB1-1418, KB1-1419 and KB1-1420 to wild-type Adriamycin-resistant DX5 cells, CD4 KO DX5 cells and ABCB1 KO (B1 KO) DX5 cells.

N6/ADR cells [1] = test: Cytotoxicity screening assay (vincristine-induced cytotoxicity); conditions: N6ADR drug resistant cell-based leukemia assay
Experimental: The effect of antibodies on vincristine-induced cytotoxicity was evaluated using the drug-resistant N6/ADR cell line. In this assay, vincristine was serially diluted, while the ABCB1 x CD47 BsAbs (or isotype control antibodies) were used at a uniform, saturating concentration. The assay readout was vincristine IC50 in the presence or absence of antibodies. Inhibition of ABCB1 should result in a lower vincristine IC50.
The assay was performed as follows: cells were plated in 0.05 mL of assay media (RPMI-1640+10% FBS) at 5000 cells/well in white, flat bottom 96-well tissue culture plates and incubated overnight at 37° C., 5% CO2. The following day vincristine was prepared at 2X final assay concentration by 1:5 or 1:10 serial dilutions in screening assay media containing test antibodies or control antibodies at 100 μg/mL (2X final concentration), or valspodar, a small molecule ABCB1 inhibitor, at 7 pM (2X final concentration). An equivalent volume (0.05 mL) of the vincristine/antibody mixture was added to the N6/ADR cells and incubated at 37° C., in 5% CO2.
After 72 hours, plates were removed from the incubator and allowed to equilibrate to room temperature. Viability was assessed using the Promega® CellTiter-Glo® Luminescent Cell Viability Assay according to the manufacturer's recommended protocol.

[2] = system: cynomolgus Red Blood Cells; test: Antibody binding to cynomolgus red blood cells by flow cytometry; assay type: cell-based; conditions: percent of RBC in the R3 gate
Experimental: (§1) Antibody binding to human and cynomolgus RBC was assessed by flow cytometry. Normal human and cynomolgus whole blood was obtained from BiolVT. RBC were prepared by centrifugation of whole blood aliquots (0.5 mL) for 5 min at 500xg. Supernatant (plasma) was removed, and RBC washed 3 times in D-PBS+1 mM EDTA. After the final wash, the RBC were resuspended in D-PBS+1 mM EDTA to a final volume of 0.5 mL. Washed RBC were then diluted in flow cytometry buffer (D-PBS+2% FBS+0.05% sodium azide) to 2% and dispensed at […] into 96-well plates. An equivalent volume ([…]) of antibody serially diluted in flow cytometry buffer to 2× final was added to the RBC, and the mixture incubated for 1 hour at room temperature. Next, RBC were washed 3 times with flow cytometry buffer and resuspended in 50 μL of Alexa Fluor®647 conjugated Fab fragment goat anti-human IgG diluted 1:200 in flow cytometry buffer. After 20 minutes at room temperature RBC were washed twice, resuspended in flow cytometry buffer and analyzed using an Invitrogen™ Attune™ NXT flow cytometer. […] Left panel, RBC are gated (R1) based on forward and side scatter. Middle panel, a second gate (R2) is applied to eliminate any remaining doublets or aggregates. Right panel, fluorescence of the R2 gated cells is assessed and a final gate (R3) is set using unstained RBC. Cells falling in the R3 gate are defined as “positive” for binding and reported as the percent (of R2 gated cells) that fall in the R3 gate. The results are presented at percent positive which represents the percent of RBC in the R3 gate.

human Red Blood Cells = test: Antibody binding to human red blood cells by flow cytometry; assay type: cell-based
Experimental: as §1

N6/ADR cells [3] = test: Cytotoxicity potency assay (antibody titrated, vincristine constant); assay type: cell-based
Experimental: The relative potency of the samples was evaluated using N6/ADR cells. These cells expressed both ABCB1 and CD47 with the expression of CD47 ˜40-fold higher than ABCB1 as determined by staining with R-phycoerythrin (R-PE) conjugated, commercially available antibodies against ABCB1 (UIC2, Biolegend) and CD47 (CC2C6, Biolegend). This assay also examined the effect of antibodies on vincristine-induced cytotoxicity using the drug-resistant cell line, N6/ADR. However, in this assay format the concentration of vincristine was held constant while the ABCB1 x CD47 BsAbs (or isotype control antibodies) were serially diluted. This assay measured antibody IC50. Lower IC50 meant higher antibody potency.
The potency assay was performed as follows. Cells were plated in 0.05 mL of assay media at 5000 cells/well in white flat bottom 96-well tissue culture plates and incubated overnight at 37° C., 5% CO2. […] An equivalent volume (0.05 mL) diluted antibody/vincristine mixture was transferred to the N6/ADR cells and incubated at 37° C., in 5% CO^2. After 72 hours, plates were removed from the incubator and allowed to equilibrate to room temperature. Viability was assessed using the Promega® CellTiter-Glo® Luminescent Cell Viability Assay according to the manufacturer's recommended protocol.

Molecule	binding to ABCB1 and CD47 antigens expressed on cancer cell surface (DX5 cells)	binding to the ABCB1 antigen, compared among light chains (DX5 cells; wild-type and knock out DX5 cells)	in vitro potency (cell killing) (N6/ADR cells [1])	Binding to cynomolgus Red Blood Cells % Positive Cy744 ([2]; donor Cy744) [%]	Binding to cynomolgus Red Blood Cells % Positive Cy745 ([2]; donor Cy745) [%]	Binding to cynomolgus Red Blood Cells % Positive Cy746 ([2]; donor Cy746) [%]	Binding to cynomolgus Red Blood Cells % Positive Cy747 ([2]; donor Cy747) [%]	Binding to human Red Blood Cells % positive D834 (human Red Blood Cells; donor D834, percent of RBC in the R3 gate) [%]	Binding to human Red Blood Cells % positive D835 (human Red Blood Cells; donor D835, percent of RBC in the R3 gate) [%]	Binding to human Red Blood Cells % positive D836 (human Red Blood Cells; donor D836, percent of RBC in the R3 gate) [%]	Binding to human Red Blood Cells % positive D837 (human Red Blood Cells; donor D837, percent of RBC in the R3 gate) [%]	binding to red blood cells (in words) (human Red Blood Cells; species not given)	potency increasing cytotoxicity (N6/ADR cells [3])
B1	specifically bind	binds better to the ABCB1 antigen	significant in vitro potency	–	–	–	–	–	–	–	–	–	–
B2	specifically bind	–	significant in vitro potency	–	–	–	–	–	–	–	–	–	–
B3	–	–	–	0.9	1.7	5.0	18.8	0.4	0.1	0.2	0.3	No binding	no effect

Positions count from the first letter of the chain named.
